Data reported in ChEMBL document CHEMBL4888484, “Replenishing the malaria drug discovery pipeline: Screening and hit evaluation of the MMV Hit Generation Library 1 (HGL1) against asexual blood stage Plasmodium falciparum ,using a nano luciferase reporter read-out” (2022).
About 410 (8.5%) of roughly 4,800 compounds showed an effect of 50% or more. Some of the results follow.

What follows are compounds tested on Plasmodium falciparum (assay: Confirmatory screen in NF54 pLDH assay, in single point, at 2uM, 72h). Settings: timepoint 72 hour.
Type: functional, Erythrocyte

Row | Structure (SMILES) | % Inhibition
1 | CC(=O)Nc1ccc(C)cc1S(=O)(=O)N1CC=C(c2c(C)n(Cc3ccccc3C)c3ccccc23)CC1 | 90%
2 | CNC(=NCCCOc1cccc(OC)c1)NC | -6%
3 | N#CCC(=O)Nc1nc(-c2ccc(Oc3ccccc3)cc2)cs1 | -5%
4 | CCCn1c(C)nnc1COC(=O)c1ncoc1C | 0%
5 | COC(=O)COc1nonc1-c1ccccc1 | 12%
6 | Cc1ccc(C(=O)OCC(=O)Nc2ccc3c(c2)OCO3)cn1 | 1%
7 | Cn1cc(CCNC(=O)C2=NN(c3ccccc3)[C@H](C(N)=O)C2)cn1 | -9%
8 | CS(=O)(=O)[C@H]1CCCN(c2nc3cc(F)ccc3o2)C1 | -7%
9 | O=C1NC2=Nc3ccccc3NC(c3ccccc3)=C2[C@H](c2cccc3ncccc23)N1 | 1%
10 | CCOc1cc(C)ccc1S(=O)(=O)NC(C)C | 0%
11 | CCc1ccc(NCc2c(OCc3ccc(Br)cc3)ccc3ccccc23)cc1 | -15%
12 | Cn1c(CCNC(=O)CCc2cccnc2)nc2cc(Cl)ccc21 | 10%
13 | CC(C)(CC(=O)Nc1ccc2oc(C3CC3)nc2c1)C(=O)O | 3%
14 | CC(=O)N1CCN(C(=O)CC2CC3CCC2C3)CC1 (stereo not drawn) | -16%
15 | Cc1ccc(S(=O)(=O)N2CCN(C(=O)N3CCOCC3)[C@@H]2C)cc1 | -12%
16 | Cc1ccc(NCc2ncccn2)cc1OCC1CCCCC1 | 5%
17 | O=C(NC1CCN(Cc2ccccc2)CC1)c1cnn2c(-c3ccc4c(c3)OCO4)ccnc12 | 11%
18 | Cc1nn(C)cc1[C@H](C)NC(=O)c1cc(-c2ccccc2)on1 | 9%
19 | COc1cccc(C(N)=O)c1OCC(=O)NC(C)C | -9%
20 | CCOc1cccc(CNC(=O)c2nn[nH]c2Nc2ccc(C)c(C)c2)c1 | 4%
21 | COc1cccc(-c2nc3n(c2C(=O)Nc2cccc(Cl)c2)CCS3(=O)=O)c1 | 5%
22 | O=C1\N=C(c2ccc(Cl)cc2)/N=N\C(c2ccc(Cl)cc2)=N/[C@]1(O)C(F)(F)F | -18%
23 | Cc1cc(OCc2ccc(Br)cc2)c(C)cc1CN1CCOCC1 | 14%
24 | Cc1ccccc1N1CCN(C(=O)CCC2CCN(c3cc(NC4CC4)ncn3)CC2)CC1 | -10%
25 | Cc1nc(NCc2coc3ccccc23)n(C)n1 | -5%
26 | CCN(CC)c1ccc(C(=O)Nc2ccc3nc(N4CCCC4)cc(C)c3c2)cc1 | 93%

Row | Structure (SMILES) | % Inhibition
27 | Cc1nccn1-c1ncc(NC(=O)Nc2ccc3c(c2)OCO3)cn1 | 14%
28 | O=C(C[C@H]1CCOC1)Nc1cc2ccc(Br)cn2n1 | 11%
29 | O=C(N[C@@H](N1CCCCCC1)C(Cl)(Cl)Cl)c1cccc(Cl)c1 | -20%
30 | COCCNc1ccc(S(N)(=O)=O)cc1N | 5%
31 | O=C(NCc1ccc(N2CCCC2=O)cc1)c1cnc2n1CCCC2 | -11%
32 | CCc1ccc(S(=O)(=O)N2CCn3c(nnc3[C@H]3CCN(C(C)C)C3)C2)cc1 | 9%
33 | COc1ccc(CN2CC(C)OC3(CCOC3)C2)cc1Cl (stereo not drawn) | 6%
34 | COc1ccccc1Cc1nnc2n1CCCC2 | 8%
35 | Cc1cc(C(=O)NCC[C@H](C)n2nc(C)cc2C)c2c(-c3ccc(F)cc3)noc2n1 | -25%
36 | Cn1cc(Cl)c(C(=O)Nc2cccc(S(=O)(=O)N3CCOCC3)c2)n1 | 13%
37 | COCCOCC(=O)Nc1cc(Cl)c(C)cc1Br | 9%
38 | CCc1cc(C(=O)N2CCCCC2)c2c(C)nn(-c3ccc(OC)cc3)c2n1 | 10%
39 | CN(C)S(=O)(=O)c1cc(C(=O)N2CCCO2)co1 | 7%
40 | Cc1nn(C)cc1NC(=O)N[C@H]1CCCC[C@@H]1O | -6%
41 | COc1ccc2c(c1)CCN2S(=O)(=O)c1ccc2c(c1)OCCO2 | -4%
42 | CCc1c2c(=O)n(-c3nc4ccccc4s3)[nH]c2cc(=O)n1CCCN1CCOCC1 | 29%
43 | CN(Cc1ccc(F)cc1Cl)[C@H]1CCc2nnc(C3CCOCC3)n2CC1 | -4%
44 | Cc1ccc(C(=O)C[n+]2cc(-c3ccc(Br)cc3)n(C)c2N)cc1 | -16%
45 | Cc1onc(C(=O)NCc2cnn(C)c2C)c1COc1cccc(C(F)(F)F)c1 | -4%
46 | N/C(CC(=O)Nc1cccc(Cl)c1)=N/O | 10%
47 | Nc1nc(-c2ccccc2)c2cc3c(nn12)C[C@H](c1ccc(F)cc1)CC3=O | -6%
48 | Cn1nc(N)c2cc(C3OCCCO3)ccc21 | -9%
49 | CC(C)(C)Nc1nc2nonc2nc1NC1CCCCC1 | 6%
50 | CCNc1nc(C)cc(Nc2ccc(NS(=O)(=O)c3c(C)noc3C)cc2)n1 | 100%
51 | CC(C)c1cc(=O)[nH]c(-n2nc(C3CC3)cc2NC(=O)Cc2ccc(Cl)cc2)n1 | 67%
52 | Cc1c(N[C@@H](C)C2CCOCC2)cccc1C(N)=O | 10%

Row | Structure (SMILES) | % Inhibition
53 | Cc1c(NC(=O)CC(C)(C)CC(=O)N2CCN(c3ccccc3F)CC2)c(=O)n(-c2ccccc2)n1C | 9%
54 | Cc1ncsc1C=Cc1ncc(C(=O)O)c(C(C)C)n1 | -14%
55 | Cc1nn(C2CCCC2)c2nc(-c3cc(CN(C)C)cs3)[nH]c12 | -5%
56 | Cn1c(-c2ccccc2)cn2cc(-c3ccc(Cl)cc3)nc12 | 13%
57 | CNCCCNC(=O)c1ccc(Br)cc1C | 10%
58 | N[C@@H](C(=O)Nc1nnc(Cc2ccsc2)s1)c1ccccc1 | 13%
59 | Cc1cc2sc(-c3ccccc3)c([O-])[n+]2cn1 | 10%
60 | Cc1ccnc(N[C@H](c2cccs2)c2cc(C)sc2NC(=O)c2ccccc2)c1 | 11%
61 | CNC(=O)[C@H]1CN(S(=O)(=O)c2cccs2)CC12CCCCC2 | -30%
62 | Cc1cc(NC(=O)Cn2c(=O)n(CC(C)C)c(=O)c3sccc32)no1 | -24%
63 | O=C(NCCCn1cccn1)c1cncc(Br)c1 | -3%
64 | CN(C)c1noc(CN2CCc3ccc(F)cc3C2)n1 | 41%
65 | CC[C@H]1Cn2c(C(=O)NC3CCCCC3)cc3c(Cl)ccc(c32)O1 | -2%
66 | CC1(C)CC[C@H](CNC(=O)c2cnn(-c3ccc(F)cc3)n2)O1 | 9%
67 | CCOCCCNC(=O)c1ccc(-c2ccc3c(c2)CCN3C(C)=O)cc1 | 12%
68 | CCn1nccc1CN(CCc1ccc(OC)c(OC)c1)S(=O)(=O)c1cnn(CC)c1C | 2%
69 | COc1cccc(CNCCCN2CCOCC2)c1OCc1ccc(F)cc1Cl | 1%
70 | Cc1cc(Cl)c2c(c1)C1(NC(CCC(=O)O)[C@H]3C(=O)N(C4CCCCC4)C(=O)[C@H]31)C(=O)N2 (stereo partly drawn) | -10%
71 | Cc1ccc(Cn2ccnc2C(=O)Nc2ccccc2)cc1 | -12%
72 | COc1nccnc1N(C(C)=O)S(=O)(=O)c1ccc(NC(C)=O)cc1 | -4%
73 | O=C(NCCc1cccnc1)OCC(F)(F)F | -19%
74 | NC(=O)c1ccc(NC(=O)N2CCC[C@H](c3cc(F)ccc3F)C2)cc1F | -16%
75 | COc1ccc(-c2[nH]ncc2C(=O)NCC2CCCCC2)cc1OC | 6%
76 | Cc1ccc(Cc2nc(N3CCCN(C(=O)c4ccc(C)cc4)CC3)c3cnn(-c4ccccc4)c3n2)cc1 | 11%
77 | CCc1cc(N2CC[C@H]3[C@H](CCC(=O)N3CCCCO)C2)nc(C)n1 | -10%
78 | COc1ccc(NC(=O)CCC(=O)NCc2ccco2)cc1 | 15%

Row | Structure (SMILES) | % Inhibition
79 | CC(C)(C)OC(=O)N1CCCC(C(O)C(F)(F)F)C1 (stereo not drawn) | 9%
80 | CCOC(=O)c1c[nH]c2c(-c3ccccc3)nsc2c1=O | 3%
81 | CN1c2cc(C(=O)N3CCN(c4ccccc4Cl)CC3)ccc2C(=O)N2CCCC[C@H]21 | 5%
82 | CC1(C)C(=O)NCCN1C(=O)c1ccc2nccnc2c1 | 9%
83 | COc1cc([C@@H]2C=C(c3ccc(Cl)cc3)Nc3ncnn32)ccc1OCc1ccc(Cl)cc1 | 4%
84 | CC(=O)N(CCN1CCOCC1)[C@H]1CCN(S(=O)(=O)c2cccc(Cl)c2)C1 | 9%
85 | Clc1cccc(N2CCN(Cc3ccc(OC4CCNCC4)cc3)CC2)c1 | 14%
86 | Cc1cc(Br)cc(N[C@H](c2cccnc2)c2ncc[nH]2)c1 | 6%
87 | CC(C)c1ccc([C@H](C(=O)Nc2ccc3c(c2)OCO3)N(Cc2ccccc2)C(=O)Cn2nnc3ccccc32)cc1 | -6%
88 | Cc1cccc(CN2C(=O)[C@@H]3CCCN3c3ccc(C#N)cc32)c1 | 7%
89 | CCc1ccc(CN2CCN(Cc3cccc(Oc4ccccc4)c3)CC2)cc1 | 8%
90 | CCN1CCC(CCNC(=O)c2cc3c(s2)N(CC)CCCC3)CC1 | -12%
91 | Cc1cc(NC(=O)Cn2ncnc2-c2cccc(C#N)c2)n(C)n1 | 10%
92 | Cc1nc([C@H]2CC(=O)N(c3ccccc3)C2)no1 | -16%
93 | COc1ccc2nc(O)c(C(=O)Nc3ccc4c(c3F)CCNC4)cc2c1 | 101%
94 | COc1cc(C(=O)Nc2ccc(Oc3cccc4[nH]ccc34)nc2)cc2c1OCCCO2 | 6%
95 | Cc1c(CCO)c(=O)n(C)n1C(=O)c1ccc(Cl)cc1 | 9%
96 | Cn1c(=O)c2c(-c3ccc(Cl)cc3)n(-c3cccc4cccc(N)c34)cc2n(C)c1=O | 91%
97 | CN1N=C(C(=O)NCc2ccccn2)CCC1=O | 11%
98 | CCc1ccc2c(c1)c(-c1ccc(Cl)cc1)c(C(=O)N1CCN(c3cccc(Cl)c3)CC1)n2C | -23%
99 | COC(=O)Nc1ccc(Cl)cc1F | 0%
100 | COc1ccc(CN(c2ccccc2)S(=O)(=O)c2ccc3nncn3c2)cc1 | 15%
101 | Cn1c(N2CCN(Cc3ccc4c(c3)OCO4)CC2)cc(=O)n(C)c1=O | -5%
102 | CN1CCN(Cc2cc3cc4c(cc3nc2-c2ccc(Cl)cc2)OCO4)CC1=O | 51%
103 | COc1cccc(N2CCN(C3=NC(=O)[C@@H](C#N)C4(CCCC4)N3)CC2)c1 | 3%
